# Reference: a collection of fitness landscapes (doi:10.1016/j.celrep.2020.107928)
# Whole data set: some 81,000 sequences, median “one-hybrid fitness for binding NBS DNA” near -0.1, cut for the highest 2% near 0.36. Some of the results follow.
# B1: Caulobacter ParB omega fusion; a variant is named by its letters at X, in order, B8GW30 (parent)
# chain: MESVVVGEPGMSEGRRGLGRGLSALLGEVDAAPAQAPGEQLGGSREAPIEILQRNPDQPRRTFREEDLEDLSNSIREKGVLQPILVRPSPDTAGEYQIVAGERAWRAAQRAGLKTVPIMVRELDDLAVLEIGIIENVQRADLNVLEEALSYKVLMEKFERTQENIAQTIGKSXSHVANXMRLLXLPDEVQSYLVSGELTAXHARAIAAAADPVALAKQIIEGGLSVRETEALARKAPNLSAGKSKGGRPPRVKDTDTQALESDLSSVLGLDVSIDHRGSTGTLTITYATLEQLDDLCNRLTRGI
# Variants of: B1
# Experiment: one-hybrid fitness for binding NBS DNA (the Noc-binding site; scaled: cognate 1, non-cognate 0); higher = stronger binding
# Conditions: with NBS DNA site
# Summary of the method: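 The reporter was HIS3, with the binding site 19 bp from the promoter, in E. coli USO used for bacterial one-hybrid selection of Caulobacter ParB libraries with four specificity codons randomised. Growth was on M9 lacking histidine, with 0.1 mM IPTG and 5 mM 3-AT, for 48 hours at 37°C. Illumina sequencing covered plasmids before and after selection; three replicate libraries were pooled and variants with under 10 reads dropped. A fitness score is the log change in variant-to-wild-type read ratio, rescaled to the cognate and non-cognate references.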
row,Variant,one-hybrid fitness for binding NBS DNA
1,PQPS,≤ 0.2
2,FPKF,≤ 0.2
3,RSWA,≤ 0.2
4,GENV,≤ 0.2
5,SQQR,≤ 0.2
6,NLIV,≤ 0.2
7,MAFG,≤ 0.2
8,PYIL,≤ 0.2
9,TFNC,≤ 0.2
10,PLAE,≤ 0.2
11,PPDR,≤ 0.2
12,MQQS,≤ 0.2
13,HNTV,≤ 0.2
14,SDGM,≤ 0.2
15,PPPY,≤ 0.2
16,GMWK,≤ 0.2
17,AGQY,≤ 0.2
18,ILGC,≤ 0.2
19,HPNT,≤ 0.2
20,WHCS,≤ 0.2
21,YFEG,≤ 0.2
22,LTPG,≤ 0.2
23,MDMG,≤ 0.2
24,QYQS,0.373

row,Variant,one-hybrid fitness for binding NBS DNA
1,IFWT,≤ 0.2
2,ENWC,≤ 0.2
3,SENF,≤ 0.2
4,SNGS,≤ 0.2
5,TMPY,≤ 0.2
6,RSIF,≤ 0.2
7,YYQS,≤ 0.2
8,GPCT,≤ 0.2
9,STCF,≤ 0.2
10,NDTC,≤ 0.2
11,SAAD,≤ 0.2
12,LRKD,≤ 0.2
13,HVHC,≤ 0.2
14,CSII,≤ 0.2
15,WQGG,≤ 0.2
16,CAMG,≤ 0.2
17,WKVS,≤ 0.2
18,WYLG,≤ 0.2
19,RMAN,≤ 0.2
20,EPHS,≤ 0.2
21,PCSL,≤ 0.2
22,PWAR,≤ 0.2
23,MNYS,≤ 0.2
24,RTLC,≤ 0.2

row,Variant,one-hybrid fitness for binding NBS DNA
1,RHKY,0.294
2,LSLR,≤ 0.2
3,NSTI,≤ 0.2
4,ETEA,≤ 0.2
5,NSIP,≤ 0.2
6,DMAS,≤ 0.2
7,MVPI,≤ 0.2
8,PEWV,≤ 0.2
9,LASS,≤ 0.2
10,AWDA,≤ 0.2
11,NRKV,≤ 0.2
12,TPHY,≤ 0.2
13,ELLR,≤ 0.2
14,NANK,≤ 0.2
15,LGNI,≤ 0.2
16,GPYG,≤ 0.2
17,LLMG,≤ 0.2
18,MRRV,≤ 0.2
19,HWYG,≤ 0.2
20,SLNR,≤ 0.2
21,RIWD,≤ 0.2
22,GLNC,≤ 0.2
23,LNPT,≤ 0.2
24,RIPS,≤ 0.2

row,Variant,one-hybrid fitness for binding NBS DNA
1,PCNR,≤ 0.2
2,NRMG,≤ 0.2
3,EWAG,≤ 0.2
4,RPYI,≤ 0.2
5,IWNY,≤ 0.2
6,GAFN,≤ 0.2
7,ICMM,≤ 0.2
8,ISHK,≤ 0.2
9,PSVM,≤ 0.2
10,YWKS,≤ 0.2
11,HWVR,≤ 0.2
12,GACA,≤ 0.2
13,QASW,≤ 0.2
14,MSRG,≤ 0.2
15,DHMN,≤ 0.2
16,LSCT,≤ 0.2
17,GAPE,≤ 0.2
18,SKGW,≤ 0.2
19,THFC,≤ 0.2
20,SWKR,≤ 0.2
21,QVEV,≤ 0.2
22,RCLR,0.416
23,SLYL,≤ 0.2
24,WWQR,≤ 0.2

row,Variant,one-hybrid fitness for binding NBS DNA
1,IEKT,≤ 0.2
2,KSKR,0.342
3,HDAD,≤ 0.2
4,PFSM,≤ 0.2
5,HPQC,≤ 0.2
6,KASY,≤ 0.2
7,DYRR,≤ 0.2
8,YYDT,≤ 0.2
9,IFNG,≤ 0.2
10,QIEG,≤ 0.2
11,APGD,≤ 0.2
12,LSAG,≤ 0.2
13,SRHS,≤ 0.2
14,PHAC,≤ 0.2
15,KDGL,≤ 0.2
16,DCSQ,≤ 0.2
17,AFQT,≤ 0.2
18,RWYC,≤ 0.2
19,HVRN,≤ 0.2
20,HFTT,≤ 0.2
21,AGAT,≤ 0.2
22,SQKP,≤ 0.2
23,RDDG,≤ 0.2
24,NIPN,≤ 0.2

row,Variant,one-hybrid fitness for binding NBS DNA
1,RPTG,≤ 0.2
2,DLFG,≤ 0.2
3,LCKT,≤ 0.2
4,SHSF,≤ 0.2
5,RSYS,0.409
6,SKTQ,≤ 0.2
7,RACN,≤ 0.2
8,PFIS,≤ 0.2
9,NNVL,≤ 0.2
10,NVLC,≤ 0.2
11,AFCR,≤ 0.2
12,DTFT,≤ 0.2
13,CTNS,≤ 0.2
14,ECNV,≤ 0.2
15,DTPG,≤ 0.2
16,QTYS,0.507
17,PQKG,≤ 0.2
18,REVE,≤ 0.2
19,CALS,≤ 0.2
20,IIMK,≤ 0.2
21,AIIL,≤ 0.2
22,MSRC,≤ 0.2
23,YQQY,≤ 0.2
24,ESPW,≤ 0.2

row,Variant,one-hybrid fitness for binding NBS DNA
1,LCRT,≤ 0.2
2,GADW,≤ 0.2
3,GQWK,≤ 0.2
4,VLMY,≤ 0.2
5,RRPN,≤ 0.2
6,IRGC,≤ 0.2
7,LDFW,≤ 0.2
8,APHG,≤ 0.2
9,DFNM,≤ 0.2
10,QEKV,≤ 0.2
11,ASTN,≤ 0.2
12,QSFH,≤ 0.2
13,TSGV,≤ 0.2
14,IRNY,≤ 0.2
15,KRNK,≤ 0.2
16,KHWT,≤ 0.2
17,RMVW,≤ 0.2
18,SHFS,≤ 0.2
19,VQPM,≤ 0.2
20,SKVS,≤ 0.2
21,LLDG,≤ 0.2
22,GRGR,≤ 0.2
23,TLIV,≤ 0.2
24,YPTG,≤ 0.2

row,Variant,one-hybrid fitness for binding NBS DNA
1,RYVA,≤ 0.2
2,LTNH,≤ 0.2
3,SLMT,≤ 0.2
4,ETGL,≤ 0.2
5,DTTR,0.304
6,HWLK,≤ 0.2
7,HHTM,≤ 0.2
8,PQLY,≤ 0.2
9,LHMT,≤ 0.2
10,FTST,≤ 0.2
11,AHPD,≤ 0.2
12,CSVT,≤ 0.2
13,KINT,≤ 0.2
14,STMW,≤ 0.2
15,ELDF,≤ 0.2
16,CSPM,≤ 0.2
17,VSGK,≤ 0.2
18,LLPA,≤ 0.2
19,IADS,≤ 0.2
20,RRIP,≤ 0.2
21,EANV,≤ 0.2
22,SGLA,≤ 0.2
23,IVPG,≤ 0.2
24,TIWR,≤ 0.2

row,Variant,one-hybrid fitness for binding NBS DNA
1,HTYY,≤ 0.2
2,VMYV,≤ 0.2
3,QAVC,≤ 0.2
4,GETM,≤ 0.2
5,SECA,≤ 0.2
6,TDPE,≤ 0.2
7,PREF,≤ 0.2
8,FATR,≤ 0.2
9,KLNC,≤ 0.2
10,CMGS,≤ 0.2
11,HLVD,≤ 0.2
12,SQMA,≤ 0.2
13,RGPC,≤ 0.2
14,KKET,≤ 0.2
15,NPAD,≤ 0.2
16,PCPG,≤ 0.2
17,ICNG,≤ 0.2
18,KRWF,≤ 0.2
19,MSQQ,≤ 0.2
20,VSLQ,≤ 0.2
21,SSIC,≤ 0.2
22,KQSF,≤ 0.2
23,CSQE,≤ 0.2
24,LNQH,≤ 0.2

row,Variant,one-hybrid fitness for binding NBS DNA
1,VGKC,≤ 0.2
2,EYDR,≤ 0.2
3,SLTP,≤ 0.2
4,SMPC,≤ 0.2
5,QYRT,0.733
6,NDSS,≤ 0.2
7,THTF,≤ 0.2
8,RRFD,≤ 0.2
9,TMLR,≤ 0.2
10,HDSV,≤ 0.2
11,GCWT,≤ 0.2
12,PILP,≤ 0.2
13,REED,≤ 0.2
14,CCDL,≤ 0.2
15,IRMG,≤ 0.2
16,ARMS,≤ 0.2
17,FTAS,≤ 0.2
18,SFVY,≤ 0.2
19,HEVG,≤ 0.2
20,HMHG,≤ 0.2
21,KCIS,≤ 0.2
22,HHCC,≤ 0.2
23,RWTY,≤ 0.2
24,DHNE,≤ 0.2

row,Variant,one-hybrid fitness for binding NBS DNA
1,QPIC,≤ 0.2
2,GLTA,≤ 0.2
3,QGCC,≤ 0.2
4,AVYC,≤ 0.2
5,TWPR,≤ 0.2
6,CYTV,≤ 0.2
7,HSCT,≤ 0.2
8,RVMH,≤ 0.2
9,QRIY,0.271
10,NITM,≤ 0.2
11,KPKK,≤ 0.2
12,KCMS,≤ 0.2
13,YNAK,≤ 0.2
14,RVCT,0.433
15,REVN,≤ 0.2
16,AAIL,≤ 0.2
17,DCAT,≤ 0.2
18,HTIC,≤ 0.2
19,VPFT,≤ 0.2
20,CKKL,≤ 0.2
21,MMIR,≤ 0.2
22,INLT,≤ 0.2
23,APNM,≤ 0.2
24,ALNS,≤ 0.2

row,Variant,one-hybrid fitness for binding NBS DNA
1,NASL,≤ 0.2
2,IESC,≤ 0.2
3,QRNC,0.44
4,TKKC,≤ 0.2
5,NVDM,≤ 0.2
6,VCSS,≤ 0.2
7,WRHV,≤ 0.2
8,TQVD,≤ 0.2
9,YLQG,≤ 0.2
10,SAVD,≤ 0.2
11,LCFT,≤ 0.2
12,TQWR,≤ 0.2
13,WRKR,0.257
14,TNYW,≤ 0.2
15,VQSV,≤ 0.2
16,ACLI,≤ 0.2
17,SLIT,≤ 0.2
18,PVHK,≤ 0.2
19,HIRT,≤ 0.2
20,ASAT,≤ 0.2
21,PYHC,≤ 0.2
22,LHWC,≤ 0.2
23,YGGT,≤ 0.2
24,TNLC,≤ 0.2

row,Variant,one-hybrid fitness for binding NBS DNA
1,RYPR,≤ 0.2
2,SRYE,≤ 0.2
3,MARG,≤ 0.2
4,VVAY,≤ 0.2
5,QNED,≤ 0.2
6,AVKW,≤ 0.2
7,INMG,≤ 0.2
8,DVWE,≤ 0.2
9,ATGP,≤ 0.2
10,YWSG,≤ 0.2
11,CDHV,≤ 0.2
12,HDPQ,≤ 0.2
13,FYAT,≤ 0.2
14,RAQT,0.395
15,HDCY,≤ 0.2
16,TRNW,≤ 0.2
17,CPWT,≤ 0.2
18,GKLH,0.366
